Experimental data from PubChem BioAssay AID588855 (National Center for Advancing Translational Sciences (NCATS), 2011).
Several values for one entry are separate records, joined by “and”; a condition that tells them apart may be missing. Equal values may be shown once. About 5,000 (1.2%) of roughly 410,000 compounds were called active. This list was built around the results that the source calls inconclusive (neither active nor inactive); the mix of calls is not that of the screen. Calls follow the shape of the dose curve; as a rule, active = well fitted inhibition curve with a large enough effect; inconclusive = small, poorly fitted or top-dose-only effect; inactive = no such curve, though single readings can be large or run the other way. Where the call is inconclusive, the potency comes from a doubtful curve fit.

Assay: qHTS for Inhibitors of TGF-b; also: nearly all actives have a fitted effect of over 65% in size
Conditions: HepG2 CAGA-GFP TGF-b/SMAD3 reporter, GFP fluorescence, 18 h, TGF-beta stimulated, 500 pg/mL final; series mostly up to 46.1 µM; activity, negative = inhibition: at the top concentration
How it was run: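 HEPG2 CAGA-GFP reporter cells (1000/well, DMEM with 1% FBS) received compounds, then recombinant TGF-beta at 500 pg/mL final for 18 hours at 37 degrees C. Per-cell GFP summed per well was normalised to unstimulated and stimulated DMSO controls before curve fitting.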
% is scaled to controls: 0 for no effect and ±100 for the full control effect; potency is read from the fitted curve at half-maximal effect; tags tell the direction and shape of the fitted curve.

| SMILES | Potency | activity, negative = inhibition |
| --- | --- | --- |
| Cc1ccc(-c2ccc(C3C(C#N)=C(N)Oc4n[nH]c(C)c43)o2)cc1 (stereo unspecified) | inconclusive: 35.5 µM [inhibitor, partial curve, poor fit] | – |
| CCC(CO)Oc1cc(NC(=O)c2ccc(OC)cc2)c2ncn(C(C)C)c2c1 (stereo unspecified) | – | inactive: 6.6% |
| S=C(NCc1ccccn1)Nc1ccc(Cl)cc1 | – | inactive: -24.1% |
| CCOC(=O)CC(=O)CSc1nc2ccc(C)cc2cc1C#N | – | inactive: -1.3% |
| CCN(c1ccccc1)S(=O)(=O)c1ccc(NC(=O)c2nc(S(C)(=O)=O)ncc2Cl)cc1 | active: 2.51 µM and active: 6.31 µM | – |
| O=C(Nc1nc2ccccc2[nH]1)c1ccc(F)cc1 | – | inactive: -14.5% |
| CSc1nnc(NC(=O)c2nc(S(=O)(=O)Cc3cccc(C)c3)ncc2Cl)s1 | inconclusive: 35.5 µM [inhibitor, single point] | – |
| CC(C)c1ccc(S(=O)(=O)NC2CCCC2)cc1 | inconclusive: 10 µM [inhibitor, partial curve, poor fit] | – |
| COc1ccc(N(C)C(=O)c2cn(C)c(=O)c3cc(OC)c(OC)cc23)cc1 | inactive | – |
| CCOC(=O)c1ccc(S(=O)(=O)N2CCC(C(=O)N3CCN(c4ccccc4OC)CC3)CC2)cc1 | inconclusive: 22.4 µM [inhibitor, single point] | – |
| Cc1ccc(Cn2c(CO)cnc2SCC(=O)Nc2ccc(C)c(Cl)c2)cc1 | inconclusive: 31.6 µM [inhibitor, single point] | – |
| COc1ccc2c(c1)sc(N)[n+]2Cc1cc(C)cc2cccnc12 | inconclusive: 35.5 µM [inhibitor, partial curve, poor fit] | – |
| O=C1C(Nc2ccccc2)=C/C(=N/S(=O)(=O)c2cccs2)c2ccccc21 | active: 3.98 µM | – |
| CCN(CC)CCNC(=O)c1cc2c(=O)n(C)c3cc(Cl)ccc3c2s1 | – | inactive: 13.8% |
| CCOc1cc(C)c(C(C)C)cc1S(=O)(=O)N1CC(C)OC(C)C1 (stereo unspecified) | – | inactive: 1.59% |
| Cc1ccc(S(=O)(=O)/C(C#N)=C/c2c[nH]c3ccccc23)cc1 | inconclusive: 20 µM [inhibitor, single point] | – |
| Cc1ccccc1NC(=O)C(C)OC(=O)CCC(=O)c1ccccc1 (stereo unspecified) | – | inactive: -23% |
| CCOC(=O)C1CCN(S(=O)(=O)c2ccc3c4c(cccc24)C(=O)N3)CC1 | inconclusive: 0.501 µM [inhibitor, full curve, poor fit] | – |
| O=C(NCCc1ccc(F)cc1)Nc1ccc([N+](=O)[O-])cc1 | inconclusive: 20 µM [inhibitor, single point] | – |
| COc1ccc(NC(=S)N/N=C2\CC(C)(C)Oc3ccc(O)cc32)cc1 | inconclusive: 35.5 µM [inhibitor, single point] | – |
| COCCN(Cc1ccc(F)cc1)C(=O)c1cc2ccccc2oc1=O | – | inactive: -11.8% |
| COc1ccc(Nc2cc(C(=O)NCCCN3CCN(c4ccccc4F)CC3)c3ccccc3n2)c(OC)c1 | active: 11.2 µM | – |

| SMILES | Potency | activity, negative = inhibition |
| --- | --- | --- |
| O=C1CSC2(C(=O)N(Cc3cccc(F)c3)c3ccccc32)N1c1cccc(C(F)(F)F)c1 (stereo unspecified) | inconclusive: 25.1 µM [inhibitor, single point] | – |
| CN(C)c1ccc(/C=C/c2c(F)cnc3ccccc23)cc1 | inconclusive: 35.5 µM [inhibitor, partial curve, poor fit] | – |
| CC(C)C[C@@]12C(=O)N(c3cccc(F)c3)C(=O)N1[C@H](c1ccc(F)cc1)[C@@H]1C(=O)N(C3CCCCC3)C(=O)[C@@H]12 | inconclusive: 0.112 µM [inhibitor, full curve, poor fit] | – |
| Cc1ccc(C(=O)O/N=C\c2ccc(N3CCCCC3)c([N+](=O)[O-])c2)cc1 | – | inactive: 26.1% |
| Cc1ccc(NCc2ccc(O)c3ncccc23)cc1C | inconclusive: 3.98 µM [inhibitor, partial curve, poor fit] | – |
| CC12CCC(/C(=N/O)C1=O)C2(C)C (stereo unspecified) | – | inactive: -2.5% |
| S=c1[nH]nc(C2CCCCC2)n1/N=C/c1ccc(Cl)cc1 | inconclusive: 22.4 µM [inhibitor, single point] | – |
| O=C1C[C@H]2CCCCC(=O)N3CC[C@@H](C1)[C@@H]23 | – | inactive: 2.91% |
| Oc1ccccc1N1CCN(c2nc(-c3cccs3)nc3ccccc23)CC1 | inconclusive: 14.1 µM [inhibitor, partial curve, poor fit] | – |
| Cc1ccc(C(=O)CSc2nnc(CNc3ccc(C)cc3C)n2Cc2ccco2)cc1 | inconclusive: 15.8 µM [inhibitor, single point] | – |
| O=C(/C=C/c1cccs1)N1CCCC1 | – | inactive: 0% |
| Cc1cc2c(cc1C)CSC(c1ccccc1OC(=O)C(C)(C)C)SC2 | inconclusive: 35.5 µM [inhibitor, single point] | – |
| Cc1ccc(C(=O)NCCn2cc(SCC(=O)Nc3nnc(C)s3)c3ccccc32)cc1 | inconclusive: 14.1 µM [inhibitor, single point] | – |
| Cc1cc2oc(=O)cc(Cn3ncc(Cl)c(Cl)c3=O)c2cc1Cl | inconclusive: 3.16 µM [inhibitor, full curve, poor fit] | – |
| CCn1c2c(c(=O)n3ncc(C(=O)N4CCN(c5ccc(Cl)cc5)CC4)c13)CN(Cc1ccc(OC)cc1)CC2 | inconclusive: 11.2 µM [inhibitor, partial curve, poor fit] | – |
| CCc1nn2cc(C(=O)c3cc(C)ccc3O)cnc2c1-c1ccc(F)cc1 | inconclusive: 35.5 µM [inhibitor, single point] | – |
| c1ccc(C[n+]2c(-c3ccccc3)csc2Nc2ccccc2)cc1 | inconclusive: 3.55 µM [inhibitor, single point] | – |
| CCCCOc1ccc(-c2csc(N)n2)cc1[N+](=O)[O-] | inconclusive: 35.5 µM [inhibitor, single point] | – |
| Cc1cccc(C)c1NC(=O)CNC(=O)Cn1nc(C)c(C)c(C#N)c1=O | – | inactive: 5.45% |
| C[C@@H](C(=O)Nc1ccc2ccccc2c1)[C@H]1C[C@]1(C)[C@H](NC(=O)c1cccnc1)c1ccccc1 | inconclusive: 35.5 µM [inhibitor, single point] | – |
| CN(c1ccc(C(=O)NC2CCCCC2)cc1)S(=O)(=O)c1ccccc1 | inconclusive: 5.62 µM [inhibitor, single point] | – |
| Clc1ccc(-n2ncc3c(NCc4cccs4)ncnc32)cc1 | inconclusive: 3.16 µM [inhibitor, single point] | – |

| SMILES | Potency | activity, negative = inhibition |
| --- | --- | --- |
| COc1ccc(-c2ccc3[nH]c4c(c3c2)CCN2C(=O)[C@@H]([C@H](C)O)[C@@H](N(C)C(=O)Nc3ccc(F)cc3)C[C@@H]42)cc1 | inconclusive: 22.4 µM [inhibitor, single point] | – |
| Cc1cc(OCC(=O)Nn2cnnc2)c(C)cc1Br | – | inactive: 3.66% |
| O=C(Cc1ccc(S(=O)(=O)N2CCOCC2)s1)N(Cc1ccccc1)c1ccccc1 | inconclusive: 35.5 µM [inhibitor, partial curve, poor fit] | – |
| Cc1ccc(S(=O)(=O)N2CCC(C(=O)N3CCc4ccccc43)CC2)cc1 | – | inactive: -10.6% |
| COc1ccc(Cl)cc1C(Nc1cccnc1)c1ccc2cccnc2c1O (stereo unspecified) | inconclusive: 15.8 µM [inhibitor, single point] | – |
| COc1ccc(Cl)cc1NC(=O)CSc1nnc(Cc2ccc(C)cc2)c(=O)[nH]1 | active: 8.91 µM | – |
| CN1C(=O)c2ccccc2Sc2ccc(NC(=O)c3ccc(C(F)(F)F)cc3)cc21 | – | inactive: -0.534% |
| O=C(OCc1ccccc1)N1C=CCC[C@@H]1c1c(Cl)cccc1Br | inconclusive: 20 µM [inhibitor, single point] | – |
| COc1cccc(OCc2nc3ccccc3c(=O)n2N)c1 | inconclusive: 20 µM [inhibitor, single point] | – |
| CCN(C[C@H]1N[C@@](C)(C(=O)OC)[C@H]2C(=O)N(Cc3ccccc3)C(=O)[C@@H]12)C(=O)c1ccc(F)cc1 | inconclusive: 4.47 µM [inhibitor, full curve, poor fit] | – |
| COc1ccc(N(CC(=O)N2CCN(Cc3ccccc3)CC2)S(C)(=O)=O)c(OC)c1 | – | inactive: -0.608% |
| O=C(/C=C/c1c[nH]c2ccccc12)c1cccc2ccccc12 | inconclusive: 35.5 µM [inhibitor, partial curve, poor fit] | – |
| Cc1ccc(S(=O)(=O)CC(=O)N2CCN(c3nc4c(F)cccc4s3)CC2)cc1 | inconclusive: 11.2 µM [inhibitor, partial curve] | – |
| CCCCN(C)CCNC(=O)c1cc2c(=O)n(C)c3ccccc3c2n1C | inconclusive: 10 µM [inhibitor, partial curve, poor fit] | – |
| Cc1ccc(C)c(Sc2ccc(NC(=O)CCl)cc2)c1 | inconclusive: 31.6 µM [inhibitor, single point] | – |
| C=CC(=O)Nc1cccc(CN2C(=O)N(c3cc(OC)cc(OC)c3)Cc3cnc(NCCCCN(CC)CC)nc32)c1 | – | inactive: -6.91% |
| CCN(Cc1nc2ccccc2c(=O)[nH]1)Cc1nc2ccsc2c(=O)[nH]1 | inconclusive: 8.91 µM [inhibitor, partial curve, poor fit] | – |
| CCC(=O)Nc1nc2ccccc2n1Cc1ccc(Cl)cc1 | inconclusive: 20 µM [inhibitor, single point] | – |
| CC(=O)Nc1ccc(/C=C2\C=C(C(O)c3ccc(NC(C)=O)cc3)c3ccccc32)cc1 (stereo unspecified) | inconclusive: 35.5 µM [inhibitor, single point] | – |
| COc1cc(C2c3cc4c(cc3OC(NCCc3ccccc3)C2C)OCO4)cc(OC)c1OC (stereo unspecified) | inconclusive: 7.08 µM [inhibitor, full curve] | – |
| O=C(CSc1nnc(Nc2ccccc2)s1)Nc1ccc(S(=O)(=O)N2CCOCC2)cc1 | inconclusive: 35.5 µM [inhibitor, single point] | – |
| Cc1ccc2cc(CN(Cc3ccccc3)Cc3nnnn3C3CCCC3)c(=O)[nH]c2c1 | inconclusive: 20 µM [inhibitor, single point] | – |
